Measured values: article PMC12136788
The other results are listed elsewhere or left out.

T1: UNK ZnF1-3 (human, UniProt Q9C0B0 31-174)
T1 sequence: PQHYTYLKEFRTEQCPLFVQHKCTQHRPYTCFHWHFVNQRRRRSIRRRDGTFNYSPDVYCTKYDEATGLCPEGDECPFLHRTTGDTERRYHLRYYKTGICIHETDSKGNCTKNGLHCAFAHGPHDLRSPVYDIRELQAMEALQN

B1: chr19:21355511:21355512:+_ENSMUSG00000024750_ENSMUST00000025659|mus_mus|FALSE|FALSE (ssRNA)
RNA: GGGAGUUCUACAGUCCGACGAUCUUUGUAGCUUUCUUCCUGCUUCCAAAAGUCAUGUCGAAAUUAAGGUGAAGUUUGACUAUGGUAGUAGACUGCCAGUCCUUUUCUGGUGUACCAUUUUUUUUUUUUUAAGUACAGGCACAUCAACAGAGGAUUGAGCAUCA
B2: chr2:198351390:198351391:-_ENSG00000144381_ENST00000345042|hu_hu|hu_hu_hu_mus_False|1_78 (ssRNA)
RNA: GGGAGUUCUACAGUCCGACGAUCUCAUUCCCACCCUCCACAGAAAGGCUGCUUCUGUUCUCAUCUGUGGUGACACAGCGCUACAGUCCUGAUGCUCACAGAACAGUAGAGAUGCCUCAGUGAUUUAAGUUGAAAGCAGCAGUACAACAGAGGAUUGAGCAUCA
B3: chr13:21172813:21172814:+_ENSG00000032742_ENST00000351808|hu_hu|FALSE|FALSE (ssRNA)
RNA: GGGAGUUCUACAGUCCGACGAUCGAUAUUUCCCAUAUUCAUUUUCAAUAUUCCUGCAUUGCUAAACAUCUUAUUUUUGACUAUAACUUGAUAAGUGUUAAGUGCUUCGGCAUACAUUUCAUUAACUGAAUACUGACUGGCCAACAACAGAGGAUUGAGCAUCA
B4: chr10:33211235:33211236:-_ENSG00000150093_ENST00000302278|hu_mus|motif|central (ssRNA)
RNA: GGGAGUUCUACAGUCCGACGAUCCAGAAUGACUUCUGAAGAAAGAGAGUUGUAGGCAUCGAUGAUUAGCUGGAUCACAUUACGGGAGUUUCCAGACAGUGUGCCCACUGCUGACUUAGGAAUCAAAUUCUUCAAUUCCUUGUACAACAGAGGAUUGAGCAUCA
B5: chr6:85879240:85879241:+_ENSMUSG00000054226_ENSMUST00000067137|mus_mus|motif|central (ssRNA)
RNA: GGGAGUUCUACAGUCCGACGAUCUACUGCUAUACUCUUUUAGCUGCCUCUUGUAUAAAGUGGGCACAAAGACAUAUCGGCCGGAAAAGCAGCUAAGAGAGUUAAAUGAAUUGCUAUUUAUUGAGAUAGGAUUUGACAUAGUACCAACAGAGGAUUGAGCAUCA
B6: chr18:40848303:40848304:-_ENSG00000132872_ENST00000255224|hu_hu|FALSE|FALSE (ssRNA)
RNA: GGGAGUUCUACAGUCCGACGAUCAGUUGCAAAUAGUUUUACUCAACUUUUCACACUCAAAAACACUUUAAAUUUUAAAAGCUAAAAACUAUUUACAAAUUAUCCAUUUUAAUUUUAAAAAUGUUUGUUGUUGGUUUCAUUGUUCAACAGAGGAUUGAGCAUCA
B7: 14953337_14953457_101_CDS_ENSMUSG00000021737_ENSMUST00000022256|mouse|control|control (ssRNA)
RNA: GGGAGUUCUACAGUCCGACGAUCCGCGAUGCGCAGGUCGGGGUUCUUGGGCAGUCCCUCUUCUUCUAGGUUUUCUAGCGGCAUGGCUACAGCACAGGAGCCGGCUGACAGAACCAAGCACAGCCCUGGGCCACCAGCGGAAGCCAACAGAGGAUUGAGCAUCA
B8: chr9:14812383:14812384:-_ENSMUSG00000031934_ENSMUST00000164273|mus_mus|mus_mus_mus_hu_True|28_68 (ssRNA)
RNA: GGGAGUUCUACAGUCCGACGAUCAUAGCCCAGGUAGAUACACGCUAACAGUAUAAUGAUGAGUGUCACCAGCCGGCAGCUAAUGUACUUGAUGAUUAAAUUAUUAGAGUUCUUUUUUGUCUUCAAGUACUGCUCCACAAUUGGCAACAGAGGAUUGAGCAUCA
B9: 38631956_38633213_3845_CDS_ENSG00000105738_ENST00000222345|human|control|control (ssRNA)
RNA: GGGAGUUCUACAGUCCGACGAUCCCUCUUGCUGUGCAGUGGCUGGGACUCCCGGAAGGGGACUAUGGGGGUCUGCUUCAGGGGCCGGCUCAGGGACUGGGCAUGGCCGGGAGUGGUUGGAGUGGCCCACUUGGAGGCUGGUAGCAACAGAGGAUUGAGCAUCA
B10: 17148888_17149008_2252_3pUTR_ENSMUSG00000058230_ENSMUST00000075845|mouse|control|control (ssRNA)
RNA: GGGAGUUCUACAGUCCGACGAUCCAAUGCUUUAAAUCUCUGCUCUUCGCCCAGAACAUCCUGGAUGACACCCAUCUUCUCCUUGCUGGGCUUAGCGUCCAGCUCCAGCUCAUAAAACAAUUCUGAGUACUCCAAAAGCAACUCCAACAGAGGAUUGAGCAUCA
B11: chr3:176740097:176740098:-_ENSG00000177565_ENST00000430069|hu_mus|hu_hu_hu_mus_True|1_28 (ssRNA)
RNA: GGGAGUUCUACAGUCCGACGAUCUGUUUUGUAUACCACAAAAGGAGGCACUUUCAGUAUCUGCAAAAGGUGUUUAGUCCUAAAACAUACUCACCUAGAGGAUAACUAAAACAGAAUAUCUGUUACACUCUAAGACCUUAGGAACAACAGAGGAUUGAGCAUCA
B12: 140724004_140724124_2635_3pUTR_ENSMUSG00000019230_ENSMUST00000019374|mouse|control|control (ssRNA)
RNA: GGGAGUUCUACAGUCCGACGAUCUCUGGAAAGUAUUCUACAUGCUAACUUGUUUAACAUGUGCUUUGGAUAUACAGCUAAGUAAGAGUAGCUUUACAAAACUUCUUUCUUCAAGUAUUCCCUUUAACAGUGAGAAAAAACCUCCAACAGAGGAUUGAGCAUCA
B13: chr6:31461392:31461393:+_ENSMUSG00000025609_ENSMUST00000026699|mus_mus|FALSE|FALSE (ssRNA)
RNA: GGGAGUUCUACAGUCCGACGAUCACCUGACGGACACUAGAGGCUUUGGAUAACCAUGUCAUUUCAACAGUAAGACAAACUAUAGAGACAACCCCCACAGUCAAAAACCACAUAUAAAAAUUAGAAUUUGCUUAAUACAGAAAACAACAGAGGAUUGAGCAUCA
B14: chr8:108204030:108204031:+_ENSMUSG00000005698_ENSMUST00000005841|mus_mus|motif|central (ssRNA)
RNA: GGGAGUUCUACAGUCCGACGAUCGGCCACAGGCUGAGGUGGAGGCGGAGGCUGGGGCUGAGGCUCUGGCUCAGGUUCAAUUUCGGCAGCAGGCUCCUCCUCCUCCUCAUUGUCAUCGAGAUCCGGCUCAGCAUUUUCUUCACUCAACAGAGGAUUGAGCAUCA

These binders were tested against T1, UNK ZnF1-3 (assay: nsRBNS (natural sequence RNA bind-n-seq); RBNS binding buffer (assumed for nsRBNS): 25 mM Tris pH 7.5, 150 mM KCl, 3 mM MgCl2, 0.01% Triton X-100, 500 ug/ml BSA, 20 U/ml SUPERase-In, 4 C; UNK is unkempt and MSI1 is Musashi-1; names of the RNAs are library labels; protein concentration not given here; high values mean tight binding).

| Binder | binding signal [enrichment R] |
| --- | --- |
| B1 | 0.531 |
| B2 | 1.27 |
| B3 | 0.801 |
| B4 | 0.682 |
| B5 | 1.1 |
| B6 | 1.08 |
| B7 | 0.789 |
| B8 | 1.39 |
| B9 | 1.68 |
| B10 | 1.18 |
| B11 | 0.723 |
| B12 | 0.477 |
| B13 | 2.92 |
| B14 | 0.472 |
